# Measurements from the supplement of paper PMC8728848.
# This is one part of the list.
# B1: Epa1-NP-mutant-Y228A (Candida glabrata), Q6VBJ0 (protein)
# chain: MILNPALFLNKCVCIYTTLILLLLTNGGYATSSNDISLASKDPTTFPLGCSPDITTPKKGLSMELYSYDFRKKGSYPCWDAAYLDPNYPRTGYKSHRLLAKVDGVTGNINFYYHATKGCTPQLGHLPASYNYPKPLTMTNFTMLLYGYFRPKVTGFHTFTISADDLLFVNFGAGNAFDCCRRDSSADHFGNYQAYAIWGSKTAKDELTVHLDAGVYYPIRLFYNNREADGALSFTFKTESNENTVSDFSEYFFSLDDTEEGCPGLISYDSSCASVKTSKIIGIDYHTETPNENLVPITKTIYHLGIPCTGTTTTPLCGSGFYDPLANKCVTINTSSTSSVTKTTSHTTSKEVSFHSSISSQKTLIPKSIPSPYGPIKSQSIPTEMETSSEISSSEYAFSDVISTPSHSPYTKKHSSLNSSSYTSTVIHSLTSYSISQGIFSTSLSEQNITSKSSTDKFSTATSMSNNITQSSIIISQFSTNNENYTTTSMHTSSDKISTETLNNSISTTTSILFSNSSTILKNNTTIISSDKDTHYHPVNPTIVCSTNKTEIICASITQPSISNSNNHWSSSVLKFNSTTVRSTLPSSAGSNETSINVPFSSSTESNTSTSSTSTSNSKMVRSTLPSSAGSNETSISVPFSSSTESNTSTSSTSTSNSKMVRSTLPSSAGSNETSINVPFSSSTESNTSTSSTSTSNSKTVRSTPFSSAGIIMTSLSQRNNKSASSYASSNSKCYNTADSCRKVHSTPSYLLTSSYTSEGVDYDCSLVSTKLKINDTNCVNNKHTTKSCLKTSVTTTIPTLEIKTARKSSSNTIGLHSYPTSSPNKSISSAPIIGYISSFKTIKTASPSYQTSDLTTITTITSLNNPGSTAVENTHESNDKSRKTSSNDISSKHSVIKETKDAVESSNKSHQTNTLKCSSIIIASSSHNSYESLGGTTLTLTLSKVYSPQNNDTLPFLEISEVNPSRTVLPESSKMMQYLTSTEERNKTARNTIATNIVSISTFHFEGEGNAIRMGYTQLLLMLIGIIVMNIGT
# What was measured:
# Assay in all cases: glycan array binding signal (z-score within array); higher = stronger binding
# Conditions in all cases: glycan notation: IUPAC condensed, linker removed; mutation: Y228A
# [1] = biological target: Gal(b1-4)GlcNAc(b1-3)Gal(b1-4)GlcNAc(b1-2)Man(a1-3)[Gal(b1-4)GlcNAc(b1-3)Gal(b1-4)GlcNAc(b1-2)Man(a1-6)]Man(b1-4)GlcNAc(b1-4)[Fuc(a1-6)]GlcNAc
# In short: (§1)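 Glycan array data came from 3228 arrays in the Consortium for Functional Glycomics database, and only arrays with an available protein sequence were kept. Glycan names were put into IUPAC-condensed notation, and columns mapping to the same glycan were averaged. The binding signal is a within-array Z-score, averaged across arrays of one protein sequence run at different concentrations or buffers and across linkers. A negative Z-score can be read as non-binding.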
# [2] = biological target: Gal(b1-4)GlcNAc(b1-3)Gal(b1-4)GlcNAc(b1-2)[Gal(b1-4)GlcNAc(b1-3)Gal(b1-4)GlcNAc(b1-6)]Man(a1-6)[Gal(b1-4)GlcNAc(b1-3)Gal(b1-4)GlcNAc(b1-2)Man(a1-3)]Man(b1-4)GlcNAc(b1-4)GlcNAc
# In short: as §1
# [3] = biological target: Gal(b1-4)GlcNAc(b1-3)Gal(b1-4)GlcNAc(b1-2)[Gal(b1-4)GlcNAc(b1-3)Gal(b1-4)GlcNAc(b1-6)]Man(a1-6)[Gal(b1-4)GlcNAc(b1-3)Gal(b1-4)GlcNAc(b1-2)Man(a1-3)]Man(b1-4)GlcNAc(b1-4)[Fuc(a1-6)]GlcNAc
# In short: as §1
# [4] = biological target: Gal(b1-4)GlcNAc(b1-3)Gal(b1-4)GlcNAc(b1-3)Gal(b1-4)GlcNAc
# In short: as §1
# [5] = biological target: Gal(b1-4)GlcNAc(b1-3)Gal(b1-4)GlcNAc(b1-3)Gal(b1-4)GlcNAc(b1-2)Man(a1-3)[Gal(b1-4)GlcNAc(b1-3)Gal(b1-4)GlcNAc(b1-3)Gal(b1-4)GlcNAc(b1-2)Man(a1-6)]Man(b1-4)GlcNAc(b1-4)GlcNAc
# In short: as §1
# [6] = biological target: Gal(b1-4)GlcNAc(b1-3)Gal(b1-4)GlcNAc(b1-3)Gal(b1-4)GlcNAc(b1-2)Man(a1-3)[Gal(b1-4)GlcNAc(b1-3)Gal(b1-4)GlcNAc(b1-3)Gal(b1-4)GlcNAc(b1-2)Man(a1-6)]Man(b1-4)GlcNAc(b1-4)[Fuc(a1-6)]GlcNAc
# In short: as §1
# [7] = biological target: Gal(b1-4)GlcNAc(b1-3)Gal(b1-4)GlcNAc(b1-3)Gal(b1-4)GlcNAc(b1-2)[Gal(b1-4)GlcNAc(b1-3)Gal(b1-4)GlcNAc(b1-3)Gal(b1-4)GlcNAc(b1-6)]Man(a1-6)[Gal(b1-4)GlcNAc(b1-3)Gal(b1-4)GlcNAc(b1-3)Gal(b1-4)GlcNAc(b1-2)Man(a1-3)]Man(b1-4)GlcNAc(b1-4)[Fuc(a1-6)]GlcNAc
# In short: as §1
# [8] = biological target: Gal(b1-4)GlcNAc(b1-3)Gal(b1-4)GlcNAc(b1-3)Gal(b1-4)GlcNAc(b1-3)Gal(b1-4)GlcNAc(b1-2)Man(a1-3)[Gal(b1-4)GlcNAc(b1-3)Gal(b1-4)GlcNAc(b1-3)Gal(b1-4)GlcNAc(b1-3)Gal(b1-4)GlcNAc(b1-2)Man(a1-6)]Man(b1-4)GlcNAc(b1-4)GlcNAc
# In short: as §1
# [9] = biological target: Gal(b1-4)GlcNAc(b1-3)Gal(b1-4)GlcNAc(b1-3)Gal(b1-4)GlcNAc(b1-3)Gal(b1-4)GlcNAc(b1-2)Man(a1-3)[Gal(b1-4)GlcNAc(b1-3)Gal(b1-4)GlcNAc(b1-3)Gal(b1-4)GlcNAc(b1-3)Gal(b1-4)GlcNAc(b1-2)Man(a1-6)]Man(b1-4)GlcNAc(b1-4)[Fuc(a1-6)]GlcNAc
# In short: as §1
# [10] = biological target: Gal(b1-4)GlcNAc(b1-3)Gal(b1-4)GlcNAc(b1-3)Gal(b1-4)GlcNAc(b1-3)Gal(b1-4)GlcNAc(b1-2)[Gal(b1-4)GlcNAc(b1-3)Gal(b1-4)GlcNAc(b1-3)Gal(b1-4)GlcNAc(b1-3)Gal(b1-4)GlcNAc(b1-6)]Man(a1-6)[Gal(b1-4)GlcNAc(b1-3)Gal(b1-4)GlcNAc(b1-3)Gal(b1-4)GlcNAc(b1-3)Gal(b1-4)GlcNAc(b1-2)Man(a1-3)]Man(b1-4)GlcNAc(b1-4)[Fuc(a1-6)]GlcNAc
# In short: as §1
# [11] = biological target: Gal(b1-4)GlcNAc(b1-3)Gal(b1-4)GlcNAc(b1-3)Gal(b1-4)GlcNAc(b1-3)Gal(b1-4)GlcNAc(b1-3)Gal(b1-4)GlcNAc(b1-2)Man(a1-3)[Gal(b1-4)GlcNAc(b1-3)Gal(b1-4)GlcNAc(b1-3)Gal(b1-4)GlcNAc(b1-3)Gal(b1-4)GlcNAc(b1-3)Gal(b1-4)GlcNAc(b1-2)Man(a1-6)]Man(b1-4)GlcNAc(b1-4)GlcNAc
# In short: as §1
# [12] = biological target: Gal(b1-4)GlcNAc(b1-3)Gal(b1-4)GlcNAc(b1-3)Gal(b1-4)GlcNAc(b1-3)Gal(b1-4)GlcNAc(b1-3)Gal(b1-4)GlcNAc(b1-2)Man(a1-3)[Gal(b1-4)GlcNAc(b1-3)Gal(b1-4)GlcNAc(b1-3)Gal(b1-4)GlcNAc(b1-3)Gal(b1-4)GlcNAc(b1-3)Gal(b1-4)GlcNAc(b1-2)Man(a1-6)]Man(b1-4)GlcNAc(b1-4)[Fuc(a1-6)]GlcNAc
# In short: as §1
# [13] = biological target: Gal(b1-4)GlcNAc(b1-3)Gal(b1-4)GlcNAc(b1-3)Gal(b1-4)GlcNAc(b1-3)Gal(b1-4)GlcNAc(b1-3)Gal(b1-4)GlcNAc(b1-2)[Gal(b1-4)GlcNAc(b1-3)Gal(b1-4)GlcNAc(b1-3)Gal(b1-4)GlcNAc(b1-3)Gal(b1-4)GlcNAc(b1-3)Gal(b1-4)GlcNAc(b1-6)]Man(a1-6)[Gal(b1-4)GlcNAc(b1-3)Gal(b1-4)GlcNAc(b1-3)Gal(b1-4)GlcNAc(b1-3)Gal(b1-4)GlcNAc(b1-3)Gal(b1-4)GlcNAc(b1-2)Man(a1-3)]Man(b1-4)GlcNAc(b1-4)[Fuc(a1-6)]GlcNAc
# In short: as §1
# [14] = biological target: Gal(b1-4)GlcNAc(b1-3)Gal(b1-4)GlcNAc(b1-3)Gal(b1-4)GlcNAc(b1-3)Gal(b1-4)GlcNAc(b1-3)Gal(b1-4)GlcNAc(b1-3)Gal(b1-4)GlcNAc(b1-2)Man(a1-3)[Gal(b1-4)GlcNAc(b1-3)Gal(b1-4)GlcNAc(b1-3)Gal(b1-4)GlcNAc(b1-3)Gal(b1-4)GlcNAc(b1-3)Gal(b1-4)GlcNAc(b1-3)Gal(b1-4)GlcNAc(b1-2)Man(a1-6)]Man(b1-4)GlcNAc(b1-4)GlcNAc
# In short: as §1
# [15] = biological target: Gal(b1-4)GlcNAc(b1-3)Gal(b1-4)GlcNAc(b1-3)GalNAc
# In short: as §1
# [16] = biological target: Gal(b1-4)GlcNAc(b1-3)Gal(b1-4)GlcNAc(b1-3)[Gal(b1-4)GlcNAc(b1-3)Gal(b1-4)GlcNAc(b1-6)]GalNAc
# In short: as §1
# [17] = biological target: Gal(b1-4)GlcNAc(b1-3)Gal(b1-4)GlcNAc(b1-6)[Gal(b1-3)]GalNAc
# In short: as §1
# [18] = biological target: Gal(b1-4)GlcNAc(b1-3)Gal(b1-4)[Fuc(a1-3)]GlcNAc(b1-3)Gal(b1-4)[Fuc(a1-3)]GlcNAc
# In short: as §1
# [19] = biological target: Gal(b1-4)GlcNAc(b1-3)GalNAc
# In short: as §1
# [20] = biological target: Gal(b1-4)GlcNAc(b1-3)[Fuc(a1-3)GlcNAc(b1-6)]Gal(b1-4)Glc
# In short: as §1
# [21] = biological target: Gal(b1-4)GlcNAc(b1-3)[Gal(b1-4)GlcNAc(b1-6)]Gal(b1-4)GlcNAc
# In short: as §1
# [22] = biological target: Gal(b1-4)GlcNAc(b1-3)[GlcNAc(b1-6)]Gal(b1-4)GlcNAc
# In short: as §1
# [23] = biological target: Gal(b1-4)GlcNAc(b1-6)Gal(b1-4)GlcNAc
# In short: as §1
# [24] = biological target: Gal(b1-4)GlcNAc(b1-6)GalNAc
# In short: as §1
# [25] = biological target: Gal(b1-4)GlcNAc(b1-6)[Gal(b1-3)]GalNAc
# In short: as §1
# [26] = biological target: Gal(b1-4)GlcNAc(b1-6)[Gal(b1-4)GlcNAc(b1-3)]GalNAc
# In short: as §1
# [27] = biological target: Gal(b1-4)GlcNAc6P
# In short: as §1
# [28] = biological target: Gal(b1-6)Gal
# In short: as §1
# [29] = biological target: Gal3S(b1-3)GalNAc
# In short: as §1
# [30] = biological target: Gal3S(b1-3)GlcNAc
# In short: as §1
binder,measurement,setting,value
B1,glycan array binding signal (z-score),[1],-0.026
same,glycan array binding signal (z-score),[2],0.309
same,glycan array binding signal (z-score),[3],0.701
same,glycan array binding signal (z-score),[4],-0.241
same,glycan array binding signal (z-score),[5],-0.005
same,glycan array binding signal (z-score),[6],-0.079
same,glycan array binding signal (z-score),[7],0.272
same,glycan array binding signal (z-score),[8],-0.15
same,glycan array binding signal (z-score),[9],0.074
same,glycan array binding signal (z-score),[10],0.047
same,glycan array binding signal (z-score),[11],0.155
same,glycan array binding signal (z-score),[12],-0.048
same,glycan array binding signal (z-score),[13],0.274
same,glycan array binding signal (z-score),[14],-0.141
same,glycan array binding signal (z-score),[15],-0.184
same,glycan array binding signal (z-score),[16],-0.056
same,glycan array binding signal (z-score),[17],0.235
same,glycan array binding signal (z-score),[18],-0.206
same,glycan array binding signal (z-score),[19],-0.147
same,glycan array binding signal (z-score),[20],-0.127
same,glycan array binding signal (z-score),[21],0.463
same,glycan array binding signal (z-score),[22],-0.169
same,glycan array binding signal (z-score),[23],2.72
same,glycan array binding signal (z-score),[24],0.019
same,glycan array binding signal (z-score),[25],0.895
same,glycan array binding signal (z-score),[26],0.637
same,glycan array binding signal (z-score),[27],-0.19
same,glycan array binding signal (z-score),[28],0.243
same,glycan array binding signal (z-score),[29],-0.153
same,glycan array binding signal (z-score),[30],-0.151
